Source: PubChem BioAssay AID757 (NMMLSC, 2007)
The whole screen tested about 190,000 compounds, of which about 520 (0.27%) were called active. Inconclusive means that the source gave no clear call. Such entries were picked first, then a sample of the others.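 The calls were made as follows: active = GTP binding activity at least 20 points away from the 100% control level, either lower or higher; inconclusive = compound flagged as likely green fluorescent, judged across all proteins; inactive = the rest.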

target: Ras-related C3 botulinum toxin substrate 1 (Homo sapiens) (UniProt P63000); assay: wildtype Rac1 GTP binding modulators, primary screen, biochemical, GST-Rac1 beads, flow cytometry, multiplex (AID 757); conditions: fluorescent GTP binding, at 10 µM, actives lie on both sides, 0 = cold GTP competed, 100 = untreated

Row | Structure (SMILES) | GTP binding activity (% of control)
1 | COc1ccccc1N(C(C)=O)c1nc(C)cc(C)c1C#N | inconclusive: 104%
2 | CC(=O)Nc1ccc(S(=O)(=O)NCC(=O)NCCc2ccc(S(N)(=O)=O)cc2)cc1 | inconclusive: 93%
3 | CC[C@H](C)[C@H](NC(=O)c1ccc(Cl)cc1)C(=O)OCC(=O)c1ccc2c(c1)NC(=O)CO2 | inconclusive: 102%
4 | CCC(C)NC(=O)CSc1nnc(-c2ccoc2C)n1CC1CCCO1 (stereo unspecified) | inconclusive: 99%
5 | COc1cc(S(=O)(=O)N2CCN(C(=O)c3ccccc3)CC2)c(OC)cc1Br | inactive: 99%
6 | CC(C)Oc1ccccc1C1CC(=O)Nc2cc3c(cc21)OCCO3 (stereo unspecified) | inconclusive: 107%
7 | Cc1sc(NC(=S)Nc2ccc(F)cc2)c(C(N)=O)c1C | inconclusive: 98%
8 | COC(=O)c1ccc(CSc2n[nH]c(=S)s2)o1 | inconclusive: 100%
9 | COc1ccc2ccccc2c1CNc1nnnn1C | inactive: 93%
10 | Cc1[nH]c2ccccc2c1C(=O)C(=O)NCc1cccs1 | inconclusive: 93%
11 | CSc1nc2ccc(NS(=O)(=O)c3c(Cl)cccc3Cl)cc2s1 | active: 79%
12 | CC(=O)c1ccc(NC(=O)C(C)N2CCN(C/C=C/c3ccccc3)CC2)cc1 (stereo unspecified) | inconclusive: 330%
13 | CCOC(=O)C1=C(N)OC2=C(C(=O)CC(C)(C)C2)C1c1cc(CSc2nnnn2C)cs1 (stereo unspecified) | inactive: 100%
14 | CCOC(=O)C1(Cc2cccc(OC)c2)CCN(Cc2cccc(OC)c2O)CC1 | inactive: 102%
15 | COc1ccc2nc(Nc3nc4ccc(NC(C)=O)cc4s3)sc2c1 | inconclusive: 93%
16 | COCCNC(=S)Nc1cc(OC)c(OC)cc1C#N | active: 57%
17 | Cc1nnc(SCC(=O)NC2CC2)n1CC1CCCO1 (stereo unspecified) | inconclusive: 99%
18 | CSc1nnc2c(n1)OC(C)=Nc1ccccc1-2 | inconclusive: 87%
19 | Cc1ccccc1C1NC(=S)NC2=C1C(=O)CCC2 (stereo unspecified) | inactive: 96%
20 | O=C(COc1ccc2oc(-c3ccccc3)cc(=O)c2c1)NCc1ccco1 | inconclusive: 93%
21 | Cc1noc(N)c1C1(O)C(=O)Nc2c(Cl)cc(Cl)cc21 (stereo unspecified) | inactive: 95%

Row | Structure (SMILES) | GTP binding activity (% of control)
22 | O=C(COC(=O)c1ccccc1S(=O)(=O)N1CCCCC1)NCC(F)(F)F | inactive: 105%
23 | O=C(c1cnccn1)N1CCc2ccccc2C1 | inactive: 103%
24 | Cc1cc(NC(=O)CSc2nc(-c3ccccc3)c(C#N)c(=O)[nH]2)no1 | active: 77%
25 | COc1ccc(-n2cnnc2SCC(=O)NC2CCCc3ccccc32)cc1 (stereo unspecified) | inactive: 105%
26 | O=c1c2ccccc2oc2nc(-c3ccco3)n(Cc3ccccc3)c(=O)c12 | inconclusive: 107%
27 | Cn1c(=O)c2c(nc(Br)n2CCCc2ccccc2)n(C)c1=O | inconclusive: 94%
28 | COc1ccccc1C(=O)NCCc1c(C)[nH]c2c(C)ccc(F)c12 | inactive: 98%
29 | O=[N+]([O-])c1cccc(-c2nnc(SCc3cccnc3)o2)c1 | inconclusive: 94%
30 | N#Cc1c(Nc2ccccc2)c(/C=N/NCCO)c[nH]c1=O | inactive: 96%
31 | Cc1ccc(-c2nnc(SCC(=O)NC(=O)Nc3ccc(C)cc3C)n2N)cc1 | inconclusive: 100%
32 | Cc1cc(=O)n2nc(N3CCCC3C(=O)NCc3ccccn3)sc2n1 (stereo unspecified) | inconclusive: 102%
33 | Cc1cc(C)c(C)c(OCCCN(C)C)c1 | inactive: 103%
34 | COc1ccccc1Nc1nc(N)nc(CN2CC(C)CC(C)C2)n1 (stereo unspecified) | inactive: 103%
35 | CCOc1ccc(Br)cc1C1C(C(=O)OC)=C(N)Oc2cc(N(C)C)ccc21 (stereo unspecified) | inactive: 114%
36 | CCOC(=O)NC1(C(F)(F)F)C(=O)N(Cc2ccccc2)C2=C1C(=O)CC(C)(C)C2 (stereo unspecified) | inactive: 98%
37 | CCOC(=O)N1CCN(C(=O)/C=C/c2cccc([N+](=O)[O-])c2)CC1 | inactive: 98%
38 | CCOC(=O)Cc1csc(NC(=O)COc2cc(C)cc(C)c2)n1 | inactive: 94%
39 | CCN(CC)c1ccc(/C=C/C(=O)c2ccc(Br)cc2)cc1 | inconclusive: 126%
40 | COC(=O)c1cccc(-n2cnnn2)c1 | inconclusive: 104%
41 | COC(=O)[C@H](CCSC)NC(=O)NC1CCN(Cc2ccccc2)CC1 | inconclusive: 106%
42 | CCn1ncc(Cl)c1C(=O)Nc1cc(Cl)ccc1Cl | inconclusive: 90%

Row | Structure (SMILES) | GTP binding activity (% of control)
43 | CC(C)c1ccc(OCC(=O)NC2=NCCS2)cc1 | inactive: 105%
44 | O=C(NCCC(c1ccccc1)c1ccccc1)c1cnccn1 | inconclusive: 105%
45 | O=C(Nc1ccc([N+](=O)[O-])cc1)c1cc(-c2ccccn2)nc2c(Cl)cccc12 | inactive: 105%
46 | Cc1ccccc1-c1nnc(-c2ccc(Cl)cc2)o1 | inactive: 99%
47 | Cc1ccc2cc(COC(=O)C3CCCO3)c(=O)[nH]c2c1 (stereo unspecified) | inactive: 101%
48 | O=c1[nH][nH]c(-c2ccccc2O)c1C(C[N+](=O)[O-])c1ccccc1 (stereo unspecified) | inconclusive: 98%
49 | COc1ccccc1OCCn1cc(C#N)c2ccccc21 | inactive: 107%
50 | CCNC(=O)CC1C(=O)N(c2ccc(F)cc2)C(=O)N1Cc1ccccn1 (stereo unspecified) | inconclusive: 108%
51 | COC(=O)COc1ccc(/C=N/NC(=O)c2ccc(N(Cc3ccccc3)S(C)(=O)=O)cc2)cc1 | active: 76%
52 | COc1ccc(/C=N\NC(=O)CCN2CCN(c3ccccc3)CC2)cc1OC | inconclusive: 93%
53 | O=C(CSc1nc2nn(-c3ccccc3)c(=O)c-2c2n1CCCCC2)NCCCc1ccccc1 | inconclusive: 101%
54 | Cc1ccc2nc(C)c(C(=O)N/N=C/c3cccs3)cc2c1 | inconclusive: 100%
55 | CCOC(=O)c1sc2nc(CC(=O)OC)nc(N3CCN(c4ccccn4)CC3)c2c1C | inconclusive: 94%
56 | CCN(C(=O)COc1cc(=O)n(C)c2ccccc12)c1cccc(Cl)c1 | inconclusive: 105%
57 | O=C(Cc1csc(NC(=O)c2ccc(F)cc2)n1)NO | inactive: 102%
58 | CC(Sc1nc2c(cc1C#N)CCCCC2)C(=O)O (stereo unspecified) | inactive: 97%
59 | CC(C)c1ccc(NC(=O)COC(=O)/C=C/c2cccc([N+](=O)[O-])c2)cc1 | inconclusive: 88%
60 | ClC1(Cl)CC1CSc1nc2ccccc2[nH]1 (stereo unspecified) | inconclusive: 94%
61 | Brc1ccc(CNc2cc3c(cc2Br)OCCO3)cc1 | inactive: 99%
